Test results from PubChem BioAssay AID602332 (National Center for Advancing Translational Sciences (NCATS), 2012).
“And” between values parts separate entries of the source, which are not always exact repeats. Equal values may be shown once. Among all 420,000 compounds or so, about 75 (0.02%) were called active. Inconclusive means that the source gave no clear call. Such entries were picked first, then a sample of the others. Calls come from the whole dose curve; as a rule, active = well fitted activation curve with a large enough effect; inconclusive = small, poorly fitted or top-dose-only effect; inactive = no such curve, though single readings can be large or run the other way. A potency beside an inconclusive call is a rough fit, not a confirmed value.

Assay: qHTS for Inducers of the Endoplasmic Reticulum Stress Response (ERSR) in Human Glioma: qHTS; note: nearly all actives have a fitted effect of over 35% in size; for activation: % of control where 0% means no effect
Details: U87-MG GRP78 promoter luciferase reporter, 16 h; activation: active compounds read high
Outline: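 ERSR induction read as luciferase luminescence (Bright-Glo, 10 min at room temperature) in stably transfected human U87-MG glioma cells exposed to compounds for 16 h, using GRP78 as sensor.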
Potency is the fitted concentration of half-maximal effect; tags give direction and shape of the fitted curve.

Structure (SMILES) | activation | Potency
NC1(c2ccc(-c3nc4ccn5c(=O)[nH]nc5c4cc3-c3ccccc3)cc2)CCC1 | inactive: -4.49% and inactive: -11% | –
CCCc1[nH]nc2c1C(c1ccc(OC)c(CSC3=NCCS3)c1)C(C#N)=C(N)O2 (centres undefined) | – | inconclusive: 50.1 µM [activator, single point]
COC(=O)[C@H](CC(C)C)NC(=O)Cn1cnc2c(OCc3ccccc3)ncnc21 | – | inconclusive: 44.7 µM [activator, partial curve, poor fit]
CCOc1cc(NC(=O)c2ccco2)c(OCC)cc1NC(=O)c1cc(OC)c(OC)c(OC)c1 | – | inconclusive: 7.94 µM [activator, partial curve, poor fit]
CC1(CN2CCC(n3c(=O)[nH]c4ccccc43)CC2)OCc2ccccc2-n2cccc21 (centres undefined) | – | inconclusive: 14.1 µM [activator, single point]
COc1ccc(-c2ccc(C(c3c(C)[nH][nH]c3=O)c3c(C)[nH][nH]c3=O)o2)c([N+](=O)[O-])c1 | – | inconclusive: 50.1 µM [activator, single point]
CCOc1ccc(-c2nnc(SCC(=O)NCCc3ccccc3)nc2-c2ccc(OCC)c(OC)c2)cc1OC | – | inconclusive: 63.1 µM [activator, single point]
CCc1ccc2c(c1)C1(C(=O)N2)N2CCCC2C(C(=O)c2ccc3ccccc3c2)C12C(=O)Nc1ccccc12 (centres undefined) | – | inconclusive: 12.6 µM [activator, single point]
COc1cc(OC)cc(-c2cc3ccc(OC)cc3cn2)c1 | inactive: -5.3% | –
O=C(Cc1ccc(-c2ccccc2)cc1)Nc1ccccn1 | – | inconclusive: 11.2 µM [activator, single point]
Cc1cc(N(C)C)c(C)cc1/C=C/c1ccnc2ccccc12 | inactive: 13.3% | –
CC1(C)COC(Cn2c3ccccc3c3ccccc32)O1 (centres undefined) | inactive: -5.8% | –
O=C(CNC(=O)C1CCCCC1)NNC(=O)c1ccc(Cl)cc1Cl | inactive: -2.35% | –
COc1ccc(-c2[nH]ncc2/C=C(/C#N)C(=O)NC2CCCCCC2)cc1 | – | inconclusive: 44.7 µM [activator, partial curve, poor fit]
COC(=O)COc1ccc2c(-c3cccc([N+](=O)[O-])c3)cc(=O)oc2c1 | – | inconclusive: 50.1 µM [activator, single point]
CCC(=O)Nc1ccc(C(=O)Nc2cc(C)on2)cc1 | – | inconclusive: 50.1 µM [activator, single point]
CCCCCCSc1nc(O)c(C2OC(=O)c3c2ccc(OC)c3OC)c(=O)n1CC (centres undefined) | – | inconclusive: 50.1 µM [activator, single point]
Cc1cc(C)nc(Nc2nc(=O)c3ccccc3s2)n1 | – | inconclusive: 11.2 µM [activator, partial curve, poor fit]
O=C(c1cc(-c2cccs2)on1)N1CCCc2ccccc21 | – | inconclusive: 28.2 µM [activator, single point]
Cn1ccc(C(=O)N/N=C/c2ccncc2)n1 | – | inconclusive: 12.6 µM [activator, partial curve, poor fit]
COc1cc(C(=O)Nc2ccc(S(=O)(=O)NC(C)C)cc2)cc(OC)c1OC | – | inconclusive: 11.2 µM [activator, single point]
Cc1cccc(C(=O)NC(=S)NNC(=O)c2ccccc2Cl)c1 | – | inconclusive: 44.7 µM [activator, partial curve, poor fit]

Structure (SMILES) | activation | Potency
O=C(NC(=S)Nc1nc(-c2ccc(Br)cc2)cs1)c1ccco1 | inactive: -3.03% | –
O=C1C=CC(=O)N1Cc1ccccc1 | inactive: -11.6% | –
COc1ccc([C@@H]2CNC(=O)C2)cc1OC1CCCC1 | – | inconclusive: 63.1 µM [activator, single point]
COc1cc(C(=O)Nc2ccc(C(C)=O)cc2)c(Br)c(OC)c1OC | inactive: 1.72% | –
COc1ccc(C2=Nc3cccc4cccc(c34)N2)cc1 | inactive: -3.66% | –
O=C(/C=C/c1ccc(O)cc1)c1ccc(NC2=C(N3CCCCC3)C(=O)c3ccccc3C2=O)cc1 | inactive: 7.99% | –
COc1cc(/C=C2/C(=O)NN(c3ccccc3)C2=O)cc(Br)c1O | – | inconclusive: 28.2 µM [activator, single point]
C[C@H](NC(=O)[C@@H]1Cc2ccccc2CN1)C(=O)NC1CCCCC1 | inactive: -4.37% | –
COc1ccc(-n2c(CN3CCOCC3)nc3ccc([N+](=O)[O-])cc3c2=O)c(OC)c1 | – | inconclusive: 11.2 µM [activator, single point]
COc1cccc2[nH]c(C(=O)NCCc3ccccc3)cc12 | – | inconclusive: 39.8 µM [activator, partial curve, poor fit]
Clc1ccc2c(SCC3CO3)c3ccccc3nc2c1 (centres undefined) | inactive: -12.4% | –
Nc1cc(Cl)ccc1Oc1ccc2ccccc2c1 | – | inconclusive: 28.2 µM [activator, single point]
Cn1nc(C(F)(F)F)c(/C=N/OC(=O)c2ccccc2Cl)c1SCc1ccccc1Cl | – | inconclusive: 14.1 µM [activator, full curve, poor fit]
COC(=O)C(/C=N/OCc1ccc([N+](=O)[O-])cc1)NC(=O)c1cccc(Cl)c1 (centres undefined) | – | inconclusive: 50.1 µM [activator, single point]
CCOc1ccc(C2Nc3c(C)cccc3-c3cc(C)nn32)cc1 (centres undefined) | inactive: -3.31% | –
O=C(CN1CCCC1)N1c2ccccc2Sc2ccc(C(F)(F)F)cc21 | – | inconclusive: 50.1 µM [activator, single point]
COc1nc(NCc2cccnc2)nc(NC2CCCCC2)n1 | inactive: 3.55% | –
Oc1cnn(-c2ccccc2)c1 | – | inconclusive: 28.2 µM [activator, single point]
CCOC(=O)Cc1cc(=O)n2[nH]c(C)c(-c3ccccc3)c2n1 | – | inconclusive: 11.2 µM [activator, single point]
COc1cc(OC)cc(-c2c(-c3ccc(F)cc3)c3cc(-c4ccc5cc[nH]c5c4)ccc3n2C)c1 | – | inconclusive: 44.7 µM [activator, single point]
CCOc1cccc(C2C=C(c3ccc4c(c3)OCO4)NC(c3ccccc3F)N2)c1O (centres undefined) | – | inconclusive: 50.1 µM [activator, partial curve, poor fit]
COCCn1c(SCC(=O)NC2CCCCC2C)nc2ccccc2c1=O (centres undefined) | – | inconclusive: 22.4 µM [activator, single point]

Structure (SMILES) | activation | Potency
CCOC(=O)C(C)NC(=O)C1CCN(c2ncnc3c2nc2n3CCCCC2)CC1 (centres undefined) | – | inconclusive: 50.1 µM [activator, single point]
CCOc1cccc2cc(C(=O)Oc3ccc(OC)cc3)c(=O)oc12 | inactive: -4.61% | –
CCOC(=O)c1cn[nH]c1NC(=S)Nc1ccc(OC)cc1 | inactive: -9.4% | –
O=C(N/N=C/c1cc(Br)c(O)c(Br)c1O)c1ccc2c(c1)OCCO2 | – | inconclusive: 11.2 µM [activator, full curve, poor fit]
C/C(CC(=O)Nc1ccccn1)=N\NC(=O)c1ccc([N+](=O)[O-])cc1Cl | – | inconclusive: 50.1 µM [activator, single point]
C=CCSc1nc2ccccc2n1C(=O)/C=C/c1ccc(OC)c(OC)c1 | – | inconclusive: 3.55 µM [activator, single point]
Cc1cccc(NC(=S)N/N=C/c2ccc(Cl)c([N+](=O)[O-])c2)c1 | – | inconclusive: 14.1 µM [activator, single point]
CCOC(=O)C1CCN(C(=O)/C(C)=C\c2ccccc2)CC1 | – | inconclusive: 15.8 µM [activator, single point]
O=C1C2C(c3ccccc3)CC=CC2C(c2ccc3ccccc3c2)N1Cc1ccccc1 (centres undefined) | – | inconclusive: 50.1 µM [activator, single point]
O=C1CCCN1CC(CN1CCOCC1)Sc1nc2ccccc2c(=O)n1-c1ccccc1 (centres undefined) | – | inconclusive: 12.6 µM [activator, partial curve, poor fit]
O=C(NC(c1ccc(F)cc1)c1ccc2ccccc2n1)C1CCN(Cc2ccc(Oc3ccccc3)cc2)CC1 (centres undefined) | – | inconclusive: 17.8 µM [activator, full curve, poor fit]
CCOC(=O)c1c(SCCN2CCCC2)n(-c2ccccc2)c(=S)n(-c2ccccc2)c1=O | – | inconclusive: 2.51 µM [activator, full curve, poor fit]
O=C1C=C(c2ccc(Oc3ccccc3)cc2)C[C@@H](c2ccc3c(c2)OCO3)C1 | inactive: -3.1% | –
c1ccc2c(N3CCOCC3)nc(N3CCOCC3)nc2c1 | inactive: -3.89% | –
CN(C)c1ccc(NC(=O)Nc2nnc([C@H]3C[C@H](O)[C@@H](CO)O3)s2)cc1 | – | inconclusive: 14.1 µM [activator, single point]
CCN(CC)CCCC(C)Nc1c2ccc(Cl)cc2nc2ccc(OC)cc12 (centres undefined) | – | inconclusive: 18.5 µM [activator, partial curve, poor fit]
CC1=C(CC(=O)c2ccc(Cl)cc2)C(=O)c2ccccc2C1=O | – | inconclusive: 11.2 µM [activator, partial curve]
O=C(/C=C/c1cccc(C(F)(F)F)c1)N1CCN(c2ccccn2)CC1 | – | inconclusive: 28.2 µM [activator, single point]
O=C(O)CCc1ccc(-c2cccs2)n1-c1ccc(C(=O)O)cc1 | inactive: -4.77% | –
COC(=O)C1=C(C)N(C2CCCCC2)C(=O)/C1=C\c1cccs1 | inactive: -2.18% | –
